According to paper PMC4336329 (PLoS ONE, 2015):
Hit rate of the full screen: of about 310,000 compounds, about 2,200 (0.71%) showed an effect of 50% or more. The effect is printed as a negative number. Some of the results follow.

Target: human ether-à-go-go-related gene (hERG) potassium channel (human, UniProt Q12809)
Test: primary screen, population patch clamp on CHO cells stably expressing hERG

human ether-à-go-go-related gene (hERG) potassium channel, sequence (Q12809 whole entry, looked up): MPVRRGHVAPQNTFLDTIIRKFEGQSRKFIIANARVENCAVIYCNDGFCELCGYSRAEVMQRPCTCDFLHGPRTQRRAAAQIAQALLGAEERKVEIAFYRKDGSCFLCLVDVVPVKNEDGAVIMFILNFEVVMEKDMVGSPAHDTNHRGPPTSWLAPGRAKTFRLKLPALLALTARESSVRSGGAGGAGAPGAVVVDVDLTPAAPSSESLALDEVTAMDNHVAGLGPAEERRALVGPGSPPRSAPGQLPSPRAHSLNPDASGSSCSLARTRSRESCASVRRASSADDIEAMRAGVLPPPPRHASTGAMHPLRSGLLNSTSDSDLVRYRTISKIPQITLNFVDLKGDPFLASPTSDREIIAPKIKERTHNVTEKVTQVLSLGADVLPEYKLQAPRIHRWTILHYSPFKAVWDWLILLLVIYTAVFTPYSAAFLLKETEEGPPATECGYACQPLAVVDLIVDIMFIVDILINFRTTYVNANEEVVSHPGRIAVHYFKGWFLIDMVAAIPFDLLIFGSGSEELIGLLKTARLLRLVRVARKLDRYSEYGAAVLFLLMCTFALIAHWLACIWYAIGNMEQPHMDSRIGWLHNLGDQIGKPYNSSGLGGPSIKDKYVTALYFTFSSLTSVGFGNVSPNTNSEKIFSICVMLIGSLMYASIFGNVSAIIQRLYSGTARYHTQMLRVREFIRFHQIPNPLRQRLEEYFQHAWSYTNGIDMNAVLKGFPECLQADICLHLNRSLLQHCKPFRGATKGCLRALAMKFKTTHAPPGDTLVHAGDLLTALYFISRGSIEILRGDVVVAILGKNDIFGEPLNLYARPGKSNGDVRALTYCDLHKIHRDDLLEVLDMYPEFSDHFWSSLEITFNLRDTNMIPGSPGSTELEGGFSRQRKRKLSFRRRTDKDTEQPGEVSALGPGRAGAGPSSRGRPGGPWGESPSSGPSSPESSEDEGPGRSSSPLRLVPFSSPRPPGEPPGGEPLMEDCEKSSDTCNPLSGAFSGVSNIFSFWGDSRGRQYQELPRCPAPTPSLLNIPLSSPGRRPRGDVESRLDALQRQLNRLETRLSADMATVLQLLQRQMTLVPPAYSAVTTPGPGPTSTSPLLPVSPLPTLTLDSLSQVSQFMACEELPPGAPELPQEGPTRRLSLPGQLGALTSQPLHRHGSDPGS

SMILES	hERG current change (%, negative = inhibition) at 1uM [%]
CCSc1nnc(NC(=O)C(C)Sc2nc3ccccc3[nH]2)s1 (centres unmarked)	18.1
NC(N)=NCC(O)CN(c1ccccc1)c1ccccc1.O=S(=O)(O)O (centres unmarked)	6.54
CC1CCCN(C(=O)CCS(=O)(=O)c2ccc3c(c2)n(C)c(=O)c(=O)n3C)C1 (centres unmarked)	9.66
O=C(Nc1nncs1)Oc1ccccc1	13.2
COc1ccc([N+](=O)[O-])cc1C1NN=C(c2ccccc2O)S1 (centres unmarked)	6.19
CN(C)S(=O)(=O)c1ccc(C(=O)Nc2ccccc2C(=O)O)cc1	4.2
CCCCNC(=S)N/N=C/c1sccc1C	16.5
CCOC(=O)N1CCN(C(=O)COc2cccc3c2CCN(Cc2ccc(F)cc2)C3=O)CC1	-25.4
COC(=O)Cc1cc(=O)n2[nH]c(C)nc2n1	-10.3
Cc1nc([N+](=O)[O-])cn1CC(=O)c1ccc(OC(F)(F)F)cc1	6.99
CCOC(=O)c1c(N)sc2c(OC)c(Br)ccc12	13.7
Cc1csc(NC(=O)c2ccc(S(=O)(=O)N3CCN(C)CC3)cc2)n1	13.1
O=C(O)CCCCCCCCc1cn(CCc2c[nH]c3ccccc23)nn1	11.9
S=C(Nc1ccc(Br)cc1)NC1CCCC1	6.59
COc1ccc(C)cc1NCc1cccc(OC)c1OC	2.77
O=C1CSc2nc3ccccc3n21	6.97
COc1ccc(N2CCN(CC(O)COCc3ccccc3)CC2)cc1.Cl (centres unmarked)	7.03
COC(=O)C1=C(C(=O)OC)[C@@H]2N(Cc3ccccc3)c3ccccc3[C@@]23C[C@@H](C(=O)OC)N(C(=O)c2cc(C)oc2C)C3=N1	6.34
COc1ccc(N2C(=NC(=O)c3ccccc3)SC3CS(=O)(=O)CC32)cc1 (centres unmarked)	8.98
Cc1ccc(N2C(=O)c3ccc(C(=O)O)cc3C2=O)cc1C	-2.94
Cc1ccc(NC(=S)NNC(C)(C)C)cc1	8.63
CCOC(=O)c1c(-c2cccs2)csc1NC(=O)CN(CC)CC	3.69
COc1ccc(-c2c(-c3cc(OC)cc(OC)c3)n(C)c3ccc(-c4ccc(N(C)C)nc4)cc23)cc1	9.16

SMILES	hERG current change (%, negative = inhibition) at 1uM [%]
Cc1cccc(C)c1NC(=O)C1(C)c2cccc[n+]2CC(=O)N1Cc1cccs1.[I-] (centres unmarked)	6.17
CC1CC1C(=O)OCC(=O)Nc1ncc(Cl)cc1Cl (centres unmarked)	6.11
C/C(O)=C(\C#N)P(=O)(c1ccccc1)c1ccccc1	8.39
Cc1ccc(NC(=O)CN2C(=O)S/C(=C\C(=O)Nc3ccc(Cl)cc3)C2=O)cc1	13.7
COc1cccc(C(=O)Nc2cc(C(=O)NCc3ccc(C)cc3)ccc2N2CCC3(CC2)CC(c2cccc(Br)c2)=NO3)c1	7.17
CC1CC(c2ccccc2)n2nc(NC(=O)c3ccco3)nc2N1 (centres unmarked)	12.6
Cc1ccc(S(=O)(=O)N(C)CC(=O)O/N=C(\N)c2cccc(Br)c2)cc1	8.81
CCOC(=O)CC(=O)CSc1n[nH]c(=O)[nH]c1=O	10.7
Cc1c(C#N)c2ccccc2n1CC(=O)NCc1cccnc1	1.28
Cc1ccc(C(=O)c2oc3nc(C)cc(C)c3c2N)cc1	7.73
Cc1cc(C)c(C)c(OCC(=O)N2CCCCCC2)c1	1.46
Cc1ccccc1-n1c(SCC(=O)N2CCN(c3ccccn3)CC2)nnc1N1CCOCC1	-5.63
CN1CCN(c2ccc([N+](=O)[O-])cc2S(=O)(=O)N2CCOCC2)CC1	5.44
Cc1cccc(/C=C2/Sc3ccc(C(=O)N4CCOCC4)cc3NC2=O)c1	14.3
CC1CCc2cc(F)ccc2N1C(=O)CSc1nnc2c3cc(F)ccc3n(C)c2n1 (centres unmarked)	7.3
COc1ccc(CNCC(O)COc2cccc3c2OC(C)(C)C3)cc1.Cl (centres unmarked)	-31.7
Cc1cc(C)c(C)c(S(=O)(=O)N2CCC(C(=O)NNC(=O)c3ccccc3O)CC2)c1C	2.9
O=C(CSc1nc2ccc(NC(=O)CSc3nnnn3-c3ccccc3)cc2s1)Nc1ccccc1	9.96
CCN(c1ccccc1)S(=O)(=O)c1ccc(F)c(C(=O)O)c1	-14.4
CC1=C(C(=O)c2ccccc2)C(c2ccc(N3CCOCC3)cc2)NC(=O)N1 (centres unmarked)	13.9
COc1ccccc1OCC(=O)Nc1ncc(C)s1	8.52
O=C(CN(CC1CCCO1)C(=O)CNS(=O)(=O)c1ccc(Cl)cc1)NCc1ccc(F)cc1 (centres unmarked)	1.72
Cc1cc(C)nc(SCC(=O)Nc2ccc(S(=O)(=O)NC(C)(C)C)cc2)n1	4.28

SMILES	hERG current change (%, negative = inhibition) at 1uM [%]
CCCN(C(=O)CSc1nnc2ccccn12)C1CCS(=O)(=O)C1 (centres unmarked)	10.4
O=C(NC1CCCCC1)c1ccc(COCC(F)(F)F)o1	8.04
COc1cccc(CNC(=O)CCC(=O)N2CC(C)Oc3ccccc32)c1OC (centres unmarked)	13.7
CCC(=O)Nc1nc(OC)cc(OC)n1	4.25
CCOC(=O)CNC(=S)N(Cc1ccccc1)Cc1cccs1	3.63
COc1ccccc1C1SCCN1S(=O)(=O)c1cccc(C(F)(F)F)c1 (centres unmarked)	16.2
C=CCn1c(O)c(C(CC)=Nc2ccc(C(=O)O)cc2)c(=O)[nH]c1=O	12.7
CC1CCCC(NC(=O)COC(=O)c2ccccc2[N+](=O)[O-])C1C (centres unmarked)	19.7
Cc1cc(N/N=C/c2ccccc2O)nc(-c2ccccc2O)n1	12.4
O=C(CN1C(=O)CSc2ccccc21)Nc1ccc2c(c1)OCCO2	12.9
CC1(c2ccc(OC(F)F)cc2)NC(=O)N(CC(=O)Nc2ccccc2)C1=O (centres unmarked)	-26.2
CCOC(=O)[C@H]1[C@H]2COc3ccc(C)cc3[C@@H]2N2C(=O)c3cc(OC)c(OC)cc3NC(=O)[C@@]12C	3.85
O=Cc1cn(CC(=O)Nc2ccc(F)cc2)c2ccccc12	11.4
O=C(CSc1ccccc1)N1CCCC(N2CCN(c3ccccc3)CC2)C1 (centres unmarked)	2.18
CCN(CC)S(=O)(=O)c1ccc2oc(C(=O)NC3CC3)c(C)c2c1	5.09
CCCCCn1cnc2sc(CC)cc2c1=O	2.11
CCOC(=O)N1CCC(NC(=O)c2ccc(CS(=O)(=O)c3c(Cl)cccc3Cl)o2)CC1	-16.3
Cc1c(CN2CCC(C(=O)Nc3ccc(Oc4ccccc4)nc3)CC2)cnn1C	-1.12
CC(C)CCOP(N)(=O)Oc1ccccc1 (centres unmarked)	12.8
O=C(CCCc1ccccc1)Nc1ccnn1C1CCN(Cc2ccccc2F)CC1	-7.43
O=C(Nc1ccccc1)Nc1ccc(Br)cc1F	14.3
N#Cc1c(/N=C/c2ccco2)oc(-c2ccccc2)c1-c1ccccc1	7.39
Cc1cc(C(=O)C(C)OC(=O)c2cnccn2)c(C)n1-c1ccccc1 (centres unmarked)	0.97

SMILES	hERG current change (%, negative = inhibition) at 1uM [%]
Cc1sc2ncnc(SCC(=O)N3CCCCC3)c2c1C	6.04
O=C(CSc1nc(-c2ccco2)cc(C(F)(F)F)n1)NCCCN1CCOCC1	6.27
COc1ccc(Cl)cc1S(=O)(=O)n1cnc2ccccc21	9.86
Cc1cc(S(=O)(=O)Nc2ccc(C(=O)NCC3(N(C)C)CCCCC3)cc2)ccc1F	-7.71
Cl.N=c1ccn(Cc2c(Cl)cccc2Cl)cc1	13.8
O=C(Nc1nc(-c2ccccc2)cs1)c1ccco1	0.339
CCSc1nnc(NC(=O)c2cc(C)nc3ccccc23)s1	1.94
CC(C(=O)Nc1nnc(C2CC2)s1)N1C(=O)C2CC=CCC2C1=O (centres unmarked)	4.18
CCN(CC)c1ccc(C(=O)n2cnc3ccccc32)cc1	12.2
Cc1ccc(S(=O)(=O)NCCCN2CCOCC2)c(C)c1	10.1
CC(=O)c1cnc(-c2ccccn2)s1	4.65
COc1cccc(CC(=O)Nc2ccc(S(=O)(=O)N3CCOCC3)cc2)c1	19.5
O=C(NC1CCN(S(=O)(=O)c2cccc(Cl)c2)CC1)C1CCCCC1	11.6
Cc1ccc2oc(-c3ccc(C)c(NC(=S)NC(=O)c4cccs4)c3)nc2c1	9.05
CN(CC(=O)Nc1cccc(F)c1)C(=O)CCCNC(=O)c1ccc(Cl)cc1	4.19
CC(=O)Nc1nnc(SCC(=O)NC2CC2)s1	16.9
COc1ccc(Cc2nc3c4c(ncn3n2)Oc2ccc3ccccc3c2C4c2ccc(OC)c(OC)c2)cc1 (centres unmarked)	5.71
CCN1CCN(S(=O)(=O)c2ccc(OC)c3ccccc23)CC1	0.905
CCOC(=O)c1c(NC(=O)c2cc(C(C)C)on2)sc(C(C)=O)c1C	13.5
COc1ccccc1NC(=O)COc1ccc2c(c1)OCO2	9.41
